# Measured values reported in the antibiotic and cytotoxicity screens of Wong et al. (2023).
# The list shows a part of the results.
# System: S. aureus RN4220
# Assay: growth inhibition call (relative growth <= 0.2)
# Conditions: 50 µM
row,Compound,growth inhibition call
1,CCCNC(=O)N1C[C@H](O)COC[C@H]2O[C@@H](CC(=O)NCc3ccncn3)CC[C@@H]21,inactive
2,CN(C)C(=O)N1CC2(CCN(S(=O)(=O)N(C)C)CC2)[C@]2(CCN(C)C2=O)C1,inactive
3,CN(C)C(=O)C[C@@H]1C=C[C@@H](NC(=O)C2CC2)[C@@H](CO)O1,inactive
4,C[C@@H]1CN([C@H](C)CO)C(=O)c2cccc(NC(=O)Nc3ccccc3)c2O[C@H]1CN(C)CC1CCCCC1,inactive
5,C[C@H]1CCCCO[C@H](CN(C)Cc2ccc(C(F)(F)F)cc2)[C@@H](C)CN([C@@H](C)CO)C(=O)c2cc(NC(=O)c3ccccc3)ccc2O1,inactive
6,C[C@@H]1CN([C@@H](C)CO)C(=O)c2cccc(N(C)C)c2O[C@@H]1CN(C)S(=O)(=O)c1ccc(Cl)cc1,inactive
7,C[C@@H]1CN([C@H](C)CO)C(=O)c2cccc(NS(C)(=O)=O)c2O[C@H]1CN(C)S(=O)(=O)c1ccc(F)cc1,inactive
8,CCOC(=O)Cn1cccc2oc(=O)nc1-2,inactive
9,COC(=O)Nc1nc2ccc(Sc3ccccc3)cc2[nH]1,inactive
10,O=C(NCC[C@H]1CC[C@H](NS(=O)(=O)c2cccc(F)c2)[C@H](CO)O1)C1CC1,inactive
11,O=C(NO)c1ccc(C(=O)N/N=C/[C@H](O)[C@@H](O)[C@@H](O)[C@H](O)C(=O)O)cc1,inactive
12,C[C@@H]1CN([C@H](C)CO)S(=O)(=O)c2ccc(-c3cncnc3)cc2O[C@H]1CN(C)C(=O)Cc1ccncc1,inactive
13,Cc1noc(C)c1NC(=O)N(C)C[C@H]1OCCCC[C@@H](C)Oc2ccc(NS(=O)(=O)c3ccc(F)cc3)cc2C(=O)N([C@H](C)CO)C[C@@H]1C,inactive
14,O=C(C[C@@H]1C[C@H]2c3cc(NS(=O)(=O)c4ccc(F)cc4)ccc3O[C@H]2[C@@H](CO)O1)N1CCCCC1,inactive
15,C[C@@H]1CN([C@H](C)CO)C(=O)c2cc(NS(C)(=O)=O)ccc2O[C@@H]1CN(C)S(=O)(=O)c1cccs1,inactive
16,C[C@H](CO)N1C[C@H](C)[C@H](CN(C)Cc2ccc(-c3ccccc3)cc2)Oc2c(NC(=O)Nc3cccc4ccccc34)cccc2C1=O,inactive
17,C[C@@H]1CN([C@H](C)CO)C(=O)Cc2cc(NC(=O)Nc3ccccc3)ccc2O[C@@H]1CN(C)Cc1ccc(Cl)c(Cl)c1,inactive
18,O=C(CN1CCOCC1)NCC[C@H]1CC[C@@H](NC(=O)c2ccccc2F)[C@H](CO)O1,inactive
19,CC(C)NC(=O)N(C)C[C@@H]1Oc2c(NS(=O)(=O)c3ccc(Cl)cc3)cccc2C(=O)N([C@H](C)CO)C[C@H]1C,inactive
20,COc1ccc(CN(C)C[C@@H]2OCCCC[C@@H](C)Oc3ccc(NC(=O)c4ccncc4)cc3C(=O)N([C@@H](C)CO)C[C@@H]2C)cc1,inactive
21,CNC[C@@H]1OCCCC[C@H](C)Oc2ccc(NC(=O)Nc3ccc(C(F)(F)F)cc3)cc2C(=O)N([C@H](C)CO)C[C@H]1C,active
22,C[C@H]1CN([C@@H](C)CO)C(=O)c2cc(NC(=O)CCN3CCOCC3)ccc2O[C@@H]1CN(C)Cc1ccc2c(c1)OCO2,inactive
23,Cc1ccc(S(=O)(=O)N(C)C[C@@H]2Oc3c(NS(=O)(=O)c4cccs4)cccc3C(=O)N([C@H](C)CO)C[C@@H]2C)cc1,inactive
24,C[C@@H]1CCCCO[C@H](CN(C)Cc2ccncc2)[C@@H](C)CN([C@@H](C)CO)C(=O)c2cc(NC(=O)Nc3cccc4ccccc34)ccc2O1,inactive
25,C[C@@H]1CN([C@H](C)CO)S(=O)(=O)c2ccc(C#Cc3ccncc3)cc2O[C@@H]1CN(C)C(=O)C1CCCCC1,inactive
26,COc1ccc(S(=O)(=O)N2C[C@H](O)COC[C@@H]3O[C@@H](CC(=O)N[C@@H]4CCN(Cc5ccccc5)C4)CC[C@H]32)cc1,inactive
27,Cc1noc(C)c1NC(=O)Nc1ccc2c(c1)C(=O)N([C@@H](C)CO)C[C@@H](C)[C@@H](CN(C)Cc1ccccc1)OCCCC[C@@H](C)O2,inactive
28,C[C@H]1CN([C@@H](C)CO)C(=O)c2cc(NC(=O)CCCN(C)C)ccc2O[C@H]1CN(C)Cc1ccc(C(=O)O)cc1,inactive
